From PMC3587840 (Nature, 2010)

Biological target: T1, PLXNB1_(1–2)(D139K) (human, UniProt O43157 20-535, D139K)
T1 sequence: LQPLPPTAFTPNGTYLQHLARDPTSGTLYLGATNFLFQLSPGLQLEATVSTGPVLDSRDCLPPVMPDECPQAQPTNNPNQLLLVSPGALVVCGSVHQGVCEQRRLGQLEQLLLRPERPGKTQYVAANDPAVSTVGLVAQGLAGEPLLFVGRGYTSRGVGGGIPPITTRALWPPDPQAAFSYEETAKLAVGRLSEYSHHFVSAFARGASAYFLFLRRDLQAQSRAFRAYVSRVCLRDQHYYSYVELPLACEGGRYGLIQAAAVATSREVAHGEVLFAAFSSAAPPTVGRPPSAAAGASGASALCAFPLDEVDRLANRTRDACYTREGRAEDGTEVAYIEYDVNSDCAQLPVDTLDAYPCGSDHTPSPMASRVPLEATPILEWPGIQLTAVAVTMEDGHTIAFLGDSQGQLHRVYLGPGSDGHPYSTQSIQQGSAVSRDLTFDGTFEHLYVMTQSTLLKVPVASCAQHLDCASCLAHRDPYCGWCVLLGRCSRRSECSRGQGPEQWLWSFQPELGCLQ
Assay: SPR

B1: human SEMA4D_(ecto), C-terminal His-tag (domain or fragment)
chain: not shown
- fold weaker binding than wild type: > 9 fold
